Experimental data: article PMC8920097, “Prediction of hERG inhibition of drug discovery compounds using biomimetic HPLC measurements” (ADMET & DMPK, 2021)

Experiments:
[1] = system: alpha-1-acid-glycoprotein (AGP); assay: Protein binding on Chiralpak AGP HPLC column; conditions: pH 7.4, Chiralpak AGP
Procedure: (§1) The measurement of the biomimetic properties of the available drugs was conducted in our laboratories. Generic gradient HPLC methods were used to determine the chromatographic hydrophobicity Index (CHI) using mobile phases at three different pH values. The protein binding of the compounds was measured using immobilised human serum albumin (HSA), and alpha-1-acid-glycoprotein (AGP) stationary phases. The phospholipid-binding was measured using the immobilised artificial membrane (IAM) stationary phase. The aim was to establish relationships between the cardiotoxicity potential and the biomimetic binding properties of the drugs and to evaluate their predictive performance.

[2] = Phospholipid binding at pH 7.4 on IAM PC.DD2 HPLC column; type: physicochemical; set-up: key: approximates acetonitrile concentration (%) in mobile phase at elution
Procedure: The phospholipid-binding was measured using an IAM PC.DD2 column with dimensions of 100 x 4.6 mm (Regis Technologies Inc., Morton Grove, IL, USA). The gradient retention times were measured using a 50 mM ammonium acetate mobile phase with the pH adjusted to 7.4. The mobile phase flow rate was 1.5 mL/min. […] The cycle time was 6 min, plus an additional 1 min equilibration time was applied while the injector prepared for the next injection. The gradient retention times were calibrated with the acetophenone homologues for which the CHI IAM values have been established using isocratic measurements. […] The CHI Index on the IAM column (CHI IAM) approximates the acetonitrile concentration in the mobile phase when the compound elutes. […] The CHI IAM values have been converted to log k IAM values derived from the CHI IAM values using equation 1. It represents the equivalent value derived from several isocratic measurements with extrapolated log retention factors to 100 % aqueous mobile phase. The log k IAM values can be converted to log K (IAM) values and show linear relationships with the octanol/water partition coefficients.

[3] = target: human serum albumin (HSA) (Homo sapiens, UniProt P02768); assay: Protein binding on Chiralpak HSA HPLC column; conditions: pH 7.4, Chiralpak HSA
Procedure: as §1

Row | Compound | log k AGP [1] | CHI IAM [2] | log k HSA [3]
1 | CN(C)CCOC(c1ccccc1)c1ccccc1 [Diphenhydramine] | 0.60 | 35.63 | 0.33
2 | CCN(CC)CC(=O)Nc1c(C)cccc1C [Lidocaine] | 0.17 |  | 
3 | Cc1cc(NS(=O)(=O)c2ccc(N)cc2)no1 [Sulfamethoxazole] | -1.57 | 13.19 | 0.4

Now from value to compound:

Row | log k AGP [1] | CHI IAM [2] | log k HSA [3] | Compound
4 | -1.83 |  |  | CC(C)NCC(O)COc1ccc(CC(N)=O)cc1 (stereo not shown) [Atenolol]
5 |  | 40.56 |  | O=C(O)COCCN1CCN(C(c2ccccc2)c2ccc(Cl)cc2)CC1 (stereo not shown) [Cetirizine]
6 | -1.19 | 25.39 | -0.54 | O=C(O)c1cn(C2CC2)c2cc(N3CCNCC3)c(F)cc2c1=O [Ciprofloxacin]
7 | 1.34 |  |  | CCOC(=O)N1CCC(=C2c3ccc(Cl)cc3CCc3cccnc32)CC1 [Loratadine]
